# The supplement of paper PMC8728848
# The other results are listed elsewhere or left out.
# B1: FaeGad (Escherichia coli) (protein)
# chain: WMTGDFNGSVDIGGSITADDYRQKWEWEVGTGLNGFGSVLNDLTNGGTKLTITVTGNKPILLGRTKEAFATPVTSGVDGIPHIAFTDYEGASVELRNPDGETEKGLTYFVLPMKNAEGTKVGSVKVNASYAGALGRGGVTSADGELMSLFAEGSHAIFYGGLPTNVKNSELKGGSAAAARTELFGSLSKNDILGQIQRVNANITSLVNVPGSFNENMAYTDGSVVSVAYALGIANGQTIEATFNQAVTTSTQWSAPLNVAITYY
# Key:
# Experiment in all cases: glycan array binding signal (z-score within array); higher = stronger binding
# Details in all cases: glycan notation: IUPAC condensed, linker removed
# [1] = molecular target: Gal(b1-3)[Fuc(a1-4)]GlcNAc(b1-3)Gal(b1-4)[Fuc(a1-3)]GlcNAc
# Procedure, shortened: (§1)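 Glycan array data were curated from 3228 arrays in the Consortium for Functional Glycomics database and kept only where the protein sequence was available. Glycan names were converted to IUPAC-condensed notation, and columns mapping to the same glycan were averaged. The binding signal is a within-array Z-score, averaged across arrays of the same protein sequence at different concentrations or buffers and across linkers. Negative Z-scores can be read as non-binding.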
# [2] = molecular target: Gal(b1-3)[GlcNAc(b1-6)]GalNAc
# Procedure, shortened: as §1
# [3] = molecular target: Gal(b1-3)[Neu5Ac(a2-6)]GalNAc
# Procedure, shortened: as §1
# [4] = molecular target: Gal(b1-3)[Neu5Ac(a2-6)]GlcNAc(b1-6)Gal(b1-4)Glc
# Procedure, shortened: as §1
# [5] = molecular target: Gal(b1-3)[Neu5Ac(b2-6)]GalNAc
# Procedure, shortened: as §1
# [6] = molecular target: Gal(b1-4)GalNAc(a1-3)[Fuc(a1-2)]Gal(b1-4)GlcNAc
# Procedure, shortened: as §1
# [7] = molecular target: Gal(b1-4)GalNAc(b1-3)[Fuc(a1-2)]Gal(b1-4)GlcNAc
# Procedure, shortened: as §1
# [8] = molecular target: Gal(b1-4)Glc
# Procedure, shortened: as §1
# [9] = molecular target: Gal(b1-4)Glc6S
# Procedure, shortened: as §1
# [10] = molecular target: Gal(b1-4)GlcNAc
# Procedure, shortened: as §1
# [11] = molecular target: Gal(b1-4)GlcNAc(b1-2)Man(a1-3)[Gal(b1-4)GlcNAc(b1-2)Man(a1-6)]Man(b1-4)GlcNAc(b1-4)GlcNAc
# Procedure, shortened: as §1
# [12] = molecular target: Gal(b1-4)GlcNAc(b1-3)Gal(b1-4)Glc
# Procedure, shortened: as §1
# [13] = molecular target: Gal(b1-4)GlcNAc(b1-3)Gal(b1-4)GlcNAc
# Procedure, shortened: as §1
# [14] = molecular target: Gal(b1-4)GlcNAc(b1-3)Gal(b1-4)GlcNAc(b1-3)Gal(b1-4)GlcNAc
# Procedure, shortened: as §1
# [15] = molecular target: Gal(b1-4)GlcNAc(b1-3)Gal(b1-4)[Fuc(a1-3)]GlcNAc(b1-3)Gal(b1-4)[Fuc(a1-3)]GlcNAc
# Procedure, shortened: as §1
# [16] = molecular target: Gal(b1-4)GlcNAc(b1-3)GalNAc
# Procedure, shortened: as §1
# [17] = molecular target: Gal(b1-4)GlcNAc(b1-3)[Gal(b1-4)GlcNAc(b1-6)]GalNAc
# Procedure, shortened: as §1
# [18] = molecular target: Gal(b1-4)GlcNAc(b1-6)Gal(b1-4)GlcNAc(b1-6)GalNAc
# Procedure, shortened: as §1
# [19] = molecular target: Gal(b1-4)GlcNAc(b1-6)GalNAc
# Procedure, shortened: as §1
# [20] = molecular target: Gal(b1-4)GlcNAc(b1-6)[Gal(b1-3)]GalNAc
# Procedure, shortened: as §1
# [21] = molecular target: Gal3S(b1-3)GalNAc
# Procedure, shortened: as §1
# [22] = molecular target: Gal3S(b1-3)GlcNAc
# Procedure, shortened: as §1
# [23] = molecular target: Gal3S(b1-3)[Fuc(a1-4)]GlcNAc
# Procedure, shortened: as §1
# [24] = molecular target: Gal3S(b1-4)Glc
# Procedure, shortened: as §1
# [25] = molecular target: Gal3S(b1-4)Glc6S
# Procedure, shortened: as §1
# [26] = molecular target: Gal3S(b1-4)GlcNAc
# Procedure, shortened: as §1
# [27] = molecular target: Gal3S(b1-4)GlcNAc6S
# Procedure, shortened: as §1
# [28] = molecular target: Gal3S6S(b1-4)GlcNAc
# Procedure, shortened: as §1
# [29] = molecular target: Gal3S6S(b1-4)GlcNAc6S
# Procedure, shortened: as §1
# [30] = molecular target: Gal4S(b1-4)GlcNAc
# Procedure, shortened: as §1
# [31] = molecular target: Gal4S6S(b1-4)GlcNAc
# Procedure, shortened: as §1
# [32] = molecular target: Gal6S(b1-4)Glc
# Procedure, shortened: as §1
# [33] = molecular target: Gal6S(b1-4)Glc6S
# Procedure, shortened: as §1
# [34] = molecular target: Gal6S(b1-4)GlcNAc
# Procedure, shortened: as §1
# [35] = molecular target: GalNAc(a1-3)Gal
# Procedure, shortened: as §1
# [36] = molecular target: GalNAc(a1-3)GalNAc
# Procedure, shortened: as §1
# [37] = molecular target: GalNAc(b1-3)Gal(a1-4)Gal(b1-4)GlcNAc
# Procedure, shortened: as §1
# [38] = molecular target: GalNAc(b1-3)GalNAc
# Procedure, shortened: as §1
# [39] = molecular target: GalNAc(b1-4)GlcNAc
# Procedure, shortened: as §1
# [40] = molecular target: Glc(a1-4)Glc
# Procedure, shortened: as §1
# [41] = molecular target: Glc(a1-6)Glc(a1-6)Glc
# Procedure, shortened: as §1
# [42] = molecular target: Glc(b1-4)Glc
# Procedure, shortened: as §1
# [43] = molecular target: Glc(b1-6)Glc
# Procedure, shortened: as §1
# [44] = molecular target: GlcA(b1-3)Gal
# Procedure, shortened: as §1
# [45] = molecular target: GlcA(b1-6)Gal
# Procedure, shortened: as §1
# [46] = molecular target: GlcNAc(a1-3)Gal(b1-4)GlcNAc
# Procedure, shortened: as §1
# [47] = molecular target: GlcNAc(a1-6)Gal(b1-4)GlcNAc
# Procedure, shortened: as §1
# [48] = molecular target: GlcNAc(b1-2)Gal(b1-3)GalNAc
# Procedure, shortened: as §1
# [49] = molecular target: GlcNAc(b1-2)Man(a1-3)[GlcNAc(b1-2)Man(a1-6)]Man(b1-4)GlcNAc(b1-4)GlcNAc
# Procedure, shortened: as §1
# [50] = molecular target: GlcNAc(b1-3)Gal
# Procedure, shortened: as §1
# [51] = molecular target: GlcNAc(b1-3)Gal(b1-3)GalNAc
# Procedure, shortened: as §1
# [52] = molecular target: GlcNAc(b1-3)Gal(b1-4)Glc
# Procedure, shortened: as §1
# [53] = molecular target: GlcNAc(b1-3)Gal(b1-4)GlcNAc
# Procedure, shortened: as §1
# [54] = molecular target: GlcNAc(b1-3)Gal(b1-4)GlcNAc(b1-3)Gal(b1-4)GlcNAc
# Procedure, shortened: as §1
# [55] = molecular target: GlcNAc(b1-3)GalNAc
# Procedure, shortened: as §1
# [56] = molecular target: GlcNAc(b1-3)[GlcNAc(b1-6)]Gal(b1-4)GlcNAc
# Procedure, shortened: as §1
# [57] = molecular target: GlcNAc(b1-3)[GlcNAc(b1-6)]GalNAc
# Procedure, shortened: as §1
# [58] = molecular target: GlcNAc(b1-3)[GlcNAc(b1-6)]GlcNAc(b1-4)GlcNAc
# Procedure, shortened: as §1
# [59] = molecular target: GlcNAc(b1-4)Gal(b1-4)GlcNAc
# Procedure, shortened: as §1
# [60] = molecular target: GlcNAc(b1-4)GlcNAc(b1-4)GlcNAc
# Procedure, shortened: as §1
binder,measurement,setting,value
B1,glycan array binding signal (z-score),[1],0.979
same,glycan array binding signal (z-score),[2],0.41
same,glycan array binding signal (z-score),[3],0.2
same,glycan array binding signal (z-score),[4],-0.216
same,glycan array binding signal (z-score),[5],0.159
same,glycan array binding signal (z-score),[6],-0.241
same,glycan array binding signal (z-score),[7],-0.333
same,glycan array binding signal (z-score),[8],0.496
same,glycan array binding signal (z-score),[9],0.601
same,glycan array binding signal (z-score),[10],-0.194
same,glycan array binding signal (z-score),[11],-0.426
same,glycan array binding signal (z-score),[12],0.629
same,glycan array binding signal (z-score),[13],-0.425
same,glycan array binding signal (z-score),[14],-0.197
same,glycan array binding signal (z-score),[15],-0.343
same,glycan array binding signal (z-score),[16],-0.214
same,glycan array binding signal (z-score),[17],-0.405
same,glycan array binding signal (z-score),[18],-0.211
same,glycan array binding signal (z-score),[19],0.098
same,glycan array binding signal (z-score),[20],0.025
same,glycan array binding signal (z-score),[21],0.169
same,glycan array binding signal (z-score),[22],-0.003
same,glycan array binding signal (z-score),[23],-0.196
same,glycan array binding signal (z-score),[24],-0.052
same,glycan array binding signal (z-score),[25],0.221
same,glycan array binding signal (z-score),[26],-0.267
same,glycan array binding signal (z-score),[27],-0.132
same,glycan array binding signal (z-score),[28],-0.184
same,glycan array binding signal (z-score),[29],-0.108
same,glycan array binding signal (z-score),[30],-0.292
same,glycan array binding signal (z-score),[31],0.008
same,glycan array binding signal (z-score),[32],0.008
same,glycan array binding signal (z-score),[33],0.404
same,glycan array binding signal (z-score),[34],-0.187
same,glycan array binding signal (z-score),[35],0.087
same,glycan array binding signal (z-score),[36],0.055
same,glycan array binding signal (z-score),[37],-0.382
same,glycan array binding signal (z-score),[38],0.344
same,glycan array binding signal (z-score),[39],-0.065
same,glycan array binding signal (z-score),[40],9.55
same,glycan array binding signal (z-score),[41],10.2
same,glycan array binding signal (z-score),[42],3.57
same,glycan array binding signal (z-score),[43],0.855
same,glycan array binding signal (z-score),[44],0.661
same,glycan array binding signal (z-score),[45],0.915
same,glycan array binding signal (z-score),[46],0.188
same,glycan array binding signal (z-score),[47],0.421
same,glycan array binding signal (z-score),[48],0.133
same,glycan array binding signal (z-score),[49],0.315
same,glycan array binding signal (z-score),[50],0.318
same,glycan array binding signal (z-score),[51],0
same,glycan array binding signal (z-score),[52],0.043
same,glycan array binding signal (z-score),[53],-0.351
same,glycan array binding signal (z-score),[54],-0.317
same,glycan array binding signal (z-score),[55],0.323
same,glycan array binding signal (z-score),[56],0.156
same,glycan array binding signal (z-score),[57],0.813
same,glycan array binding signal (z-score),[58],0.871
same,glycan array binding signal (z-score),[59],0.141
same,glycan array binding signal (z-score),[60],0.137
